# Test results: the supplement of paper PMC10037445
# Whole data set: some 2,900 compounds, median “NF-kB SEAP reporter activity, fold change vs agonist alone” near 0.99, cut for the highest 2% near 2.6. This is one part of the list.
# Tests used:
# RAW-Dual [1] = assay: NF-kB SEAP reporter activity, fold change vs agonist alone; cytotoxicity flag (confluency mask): not cytotoxic; higher = enhanced NF-kB activity
# How it was run: (§1)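 Library stock was pin-tooled at 50 nL into 384-well plates of RAW-Dual macrophages (50,000 cells/well, DMEM), followed 1 h later by a PRR agonist, and the cells were kept at 37 °C, 5% CO2. Supernatant collected after 20 hours was read for IRF by QuantiLuc luminescence and for NF-κB by QuantiBlue absorbance at 620 nm. Reporter activity is fold change over agonist-alone wells, and a well counted as cytotoxic when its IncuCyte confluency was below 70% of agonist controls in both mask sets.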
# RAW-Dual [2] = assay: NF-kB SEAP reporter activity, fold change vs agonist alone; higher = enhanced NF-kB activity
# How it was run: as §1
# RAW-Dual [3] = assay: NF-kB SEAP reporter activity, fold change vs agonist alone; cytotoxicity flag (confluency mask): cytotoxic (confluency <70% of control); higher = enhanced NF-kB activity
# How it was run: as §1
# [4] = agonist: ODN 1826 (TLR9) 0.5 ug/mL
# [5] = agonist: Pam2CSK4 (TLR2/6) 0.1 ug/mL
# [6] = agonist: Pam3CSK4 (TLR2/1) 0.1 ug/mL
# [7] = library stock concentration (final ~1000-fold dilution): 10 mM, cytotoxicity flag (confluency mask): not cytotoxic, agonist: Imiquimod (TLR7) […]
# [8] = library stock concentration (final ~1000-fold dilution): 10 mM, cytotoxicity flag (confluency mask): not cytotoxic, agonist: MPLA (TLR4) […]
smiles,measurement,setting,value
COC1CC2CCC(C)C(O)(O2)C(=O)C(=O)N2CCCCC2C(=O)OC(C(C)CC2CCC(OCCO)C(OC)C2)CC(=O)C(C)C=C(C)C(O)C(OC)C(=O)C(C)CC(C)C=CC=CC=C1C (configuration not stated) (library stock concentration (final ~1000-fold dilution): 10 mM),NF-kB SEAP reporter activity,RAW-Dual [1]; agonist: LPS (TLR4) 0.1 ug/mL,1.83
same,NF-kB SEAP reporter activity,RAW-Dual [1]; [4],1.7
same,NF-kB SEAP reporter activity,RAW-Dual [1]; [5],0.629
same,NF-kB SEAP reporter activity,RAW-Dual [1]; [6],0.915
COC1CC2CCC(C)C(O)(O2)C(=O)C(=O)N2CCCCC2C(=O)OC(C(C)CC2CCC(OCCO)C(OC)C2)CC(=O)C(C)C=C(C)C(O)C(OC)C(=O)C(C)CC(C)C=CC=CC=C1C (configuration not stated),NF-kB SEAP reporter activity,RAW-Dual [2]; [7],1.77
same,NF-kB SEAP reporter activity,RAW-Dual [2]; [8],1.92
CN(C)C(=O)C(O)C(Cc1ccccc1)NC(=O)c1cc2cc(Cl)ccc2[nH]1 (configuration not stated) (library stock concentration (final ~1000-fold dilution): 10 mM),NF-kB SEAP reporter activity,RAW-Dual [1]; agonist: LPS (TLR4) 0.1 ug/mL,1.17
same,NF-kB SEAP reporter activity,RAW-Dual [1]; [4],0.892
same,NF-kB SEAP reporter activity,RAW-Dual [1]; [5],1.05
same,NF-kB SEAP reporter activity,RAW-Dual [1]; [6],0.988
CN(C)C(=O)C(O)C(Cc1ccccc1)NC(=O)c1cc2cc(Cl)ccc2[nH]1 (configuration not stated),NF-kB SEAP reporter activity,RAW-Dual [2]; [7],0.875
same,NF-kB SEAP reporter activity,RAW-Dual [2]; [8],0.844
C=C1CCCC2(C)C=C3OC(=O)C(C)=C3CC12 (configuration not stated),NF-kB SEAP reporter activity,RAW-Dual [2]; [7],0.726
same,NF-kB SEAP reporter activity,RAW-Dual [2]; [8],1.14
C=C1CCCC2(C)C=C3OC(=O)C(C)=C3CC12 (configuration not stated) (library stock concentration (final ~1000-fold dilution): 10 mM),NF-kB SEAP reporter activity,RAW-Dual [1]; agonist: LPS (TLR4) 0.1 ug/mL,1
same,NF-kB SEAP reporter activity,RAW-Dual [1]; [4],1.06
same,NF-kB SEAP reporter activity,RAW-Dual [1]; [5],1.52
same,NF-kB SEAP reporter activity,RAW-Dual [1]; [6],1.49
O=C(O)c1cc(C(F)(F)F)ccc1N1CCC(OCc2ccccn2)C1 (configuration not stated),NF-kB SEAP reporter activity,RAW-Dual [2]; [7],1.22
same,NF-kB SEAP reporter activity,RAW-Dual [2]; [8],1.43
O=C(O)c1cc(C(F)(F)F)ccc1N1CCC(OCc2ccccn2)C1 (configuration not stated) (library stock concentration (final ~1000-fold dilution): 10 mM),NF-kB SEAP reporter activity,RAW-Dual [1]; agonist: LPS (TLR4) 0.1 ug/mL,1.02
same,NF-kB SEAP reporter activity,RAW-Dual [1]; [4],2.21
same,NF-kB SEAP reporter activity,RAW-Dual [1]; [5],1.22
same,NF-kB SEAP reporter activity,RAW-Dual [1]; [6],2.09
CCN(CC)C(=O)N1CCN(C)CC1.O=C(O)CC(O)(CC(=O)O)C(=O)O (library stock concentration (final ~1000-fold dilution): 10 mM),NF-kB SEAP reporter activity,RAW-Dual [1]; agonist: LPS (TLR4) 0.1 ug/mL,1.09
same,NF-kB SEAP reporter activity,RAW-Dual [1]; [4],1
same,NF-kB SEAP reporter activity,RAW-Dual [1]; [5],0.878
same,NF-kB SEAP reporter activity,RAW-Dual [1]; [6],0.981
CCN(CC)C(=O)N1CCN(C)CC1.O=C(O)CC(O)(CC(=O)O)C(=O)O,NF-kB SEAP reporter activity,RAW-Dual [2]; [7],0.932
same,NF-kB SEAP reporter activity,RAW-Dual [2]; [8],0.984
O=C1/C(=C/c2cccs2)CC/C1=C\c1cccs1 (library stock concentration (final ~1000-fold dilution): 2 mM),NF-kB SEAP reporter activity,RAW-Dual [1]; agonist: LPS (TLR4) 0.1 ug/mL,1.19
same,NF-kB SEAP reporter activity,RAW-Dual [1]; [4],1.01
same,NF-kB SEAP reporter activity,RAW-Dual [1]; [5],1.01
same,NF-kB SEAP reporter activity,RAW-Dual [1]; [6],1.18
O=C1/C(=C/c2cccs2)CC/C1=C\c1cccs1,NF-kB SEAP reporter activity,"RAW-Dual [2]; library stock concentration (final ~1000-fold dilution): 2 mM, cytotoxicity flag (confluency mask): not cytotoxic, agonist: Imiquimod (TLR7) […]",0.91
same,NF-kB SEAP reporter activity,"RAW-Dual [2]; library stock concentration (final ~1000-fold dilution): 2 mM, cytotoxicity flag (confluency mask): not cytotoxic, agonist: MPLA (TLR4) […]",1.09
CCCc1nc(C(C)(C)O)c(C(=O)OCc2oc(=O)oc2C)n1Cc1ccc(-c2ccccc2-c2nn[nH]n2)cc1,NF-kB SEAP reporter activity,RAW-Dual [2]; [7],0.882
same,NF-kB SEAP reporter activity,RAW-Dual [2]; [8],1.04
CCCc1nc(C(C)(C)O)c(C(=O)OCc2oc(=O)oc2C)n1Cc1ccc(-c2ccccc2-c2nn[nH]n2)cc1 (library stock concentration (final ~1000-fold dilution): 10 mM),NF-kB SEAP reporter activity,RAW-Dual [1]; agonist: LPS (TLR4) 0.1 ug/mL,1.01
same,NF-kB SEAP reporter activity,RAW-Dual [1]; [4],0.995
same,NF-kB SEAP reporter activity,RAW-Dual [1]; [5],1.06
same,NF-kB SEAP reporter activity,RAW-Dual [1]; [6],1.03
C=C1C(CO)C(O)CC1n1cnc2c(=O)nc(N)[nH]c21 (configuration not stated) (library stock concentration (final ~1000-fold dilution): 10 mM),NF-kB SEAP reporter activity,RAW-Dual [1]; agonist: LPS (TLR4) 0.1 ug/mL,1.32
same,NF-kB SEAP reporter activity,RAW-Dual [1]; [4],0.996
same,NF-kB SEAP reporter activity,RAW-Dual [1]; [5],1.37
same,NF-kB SEAP reporter activity,RAW-Dual [1]; [6],0.846
C=C1C(CO)C(O)CC1n1cnc2c(=O)nc(N)[nH]c21 (configuration not stated),NF-kB SEAP reporter activity,RAW-Dual [2]; [8],1.07
CC1(C(=O)Nc2ccc(F)nc2)CCCN1c1nc(Nc2cc(C3CC3)[nH]n2)c2cccn2n1 (configuration not stated) (library stock concentration (final ~1000-fold dilution): 10 mM),NF-kB SEAP reporter activity,RAW-Dual [1]; agonist: LPS (TLR4) 0.1 ug/mL,0.844
same,NF-kB SEAP reporter activity,RAW-Dual [1]; [4],1.04
same,NF-kB SEAP reporter activity,RAW-Dual [1]; [5],0.468
same,NF-kB SEAP reporter activity,RAW-Dual [1]; [6],0.664
CC1(C(=O)Nc2ccc(F)nc2)CCCN1c1nc(Nc2cc(C3CC3)[nH]n2)c2cccn2n1 (configuration not stated),NF-kB SEAP reporter activity,RAW-Dual [2]; [7],1.27
same,NF-kB SEAP reporter activity,RAW-Dual [2]; [8],1.19
COS(=O)(=O)[O-].COc1cc(N)cn[n+]1-c1ccccc1,NF-kB SEAP reporter activity,RAW-Dual [2]; [7],0.917
same,NF-kB SEAP reporter activity,RAW-Dual [2]; [8],1.08
COS(=O)(=O)[O-].COc1cc(N)cn[n+]1-c1ccccc1 (library stock concentration (final ~1000-fold dilution): 10 mM),NF-kB SEAP reporter activity,RAW-Dual [1]; agonist: LPS (TLR4) 0.1 ug/mL,1.01
same,NF-kB SEAP reporter activity,RAW-Dual [1]; [4],0.939
same,NF-kB SEAP reporter activity,RAW-Dual [1]; [5],0.993
same,NF-kB SEAP reporter activity,RAW-Dual [1]; [6],0.97
CN1CCC(=C2c3ccccc3CCc3sccc32)CC1.O=C(O)CC(O)C(=O)O (library stock concentration (final ~1000-fold dilution): 10 mM),NF-kB SEAP reporter activity,RAW-Dual [3]; agonist: LPS (TLR4) 0.1 ug/mL,1.08
same,NF-kB SEAP reporter activity,RAW-Dual [3]; [4],0.512
same,NF-kB SEAP reporter activity,RAW-Dual [3]; [5],0.669
same,NF-kB SEAP reporter activity,RAW-Dual [3]; [6],0.792
CN1CCC(=C2c3ccccc3CCc3sccc32)CC1.O=C(O)CC(O)C(=O)O,NF-kB SEAP reporter activity,"RAW-Dual [2]; library stock concentration (final ~1000-fold dilution): 10 mM, cytotoxicity flag (confluency mask): cytotoxic (confluency <70% of control), agonist: Imiquimod (TLR7) […]",1.44
same,NF-kB SEAP reporter activity,"RAW-Dual [2]; library stock concentration (final ~1000-fold dilution): 10 mM, cytotoxicity flag (confluency mask): cytotoxic (confluency <70% of control), agonist: MPLA (TLR4) […]",1.21
O=C1C[C@@H](c2ccc(O[C@@H]3O[C@H](CO)[C@@H](O)[C@H](O)[C@H]3O)cc2)Oc2cc(O)ccc21,NF-kB SEAP reporter activity,RAW-Dual [2]; [7],1.17
same,NF-kB SEAP reporter activity,RAW-Dual [2]; [8],1.18
O=C1C[C@@H](c2ccc(O[C@@H]3O[C@H](CO)[C@@H](O)[C@H](O)[C@H]3O)cc2)Oc2cc(O)ccc21 (library stock concentration (final ~1000-fold dilution): 10 mM),NF-kB SEAP reporter activity,RAW-Dual [1]; agonist: LPS (TLR4) 0.1 ug/mL,0.734
same,NF-kB SEAP reporter activity,RAW-Dual [1]; [4],0.871
same,NF-kB SEAP reporter activity,RAW-Dual [1]; [5],0.793
same,NF-kB SEAP reporter activity,RAW-Dual [1]; [6],0.946
Nc1ccn(C2CSC(CO)O2)c(=O)n1 (configuration not stated) (library stock concentration (final ~1000-fold dilution): 10 mM),NF-kB SEAP reporter activity,RAW-Dual [1]; agonist: LPS (TLR4) 0.1 ug/mL,0.862
same,NF-kB SEAP reporter activity,RAW-Dual [1]; [4],1.03
same,NF-kB SEAP reporter activity,RAW-Dual [1]; [5],0.999
same,NF-kB SEAP reporter activity,RAW-Dual [1]; [6],1.11
Nc1ccn(C2CSC(CO)O2)c(=O)n1 (configuration not stated),NF-kB SEAP reporter activity,RAW-Dual [2]; [7],0.893
same,NF-kB SEAP reporter activity,RAW-Dual [2]; [8],1.04
